{"source": "patent US20040254094A1", "about": "“Suppression of cyclin kinase activity for prevention and treatment of infections” (priority 2000, published 2004)", "origin": "cited, not measured here", "system": "human lung fibroblasts", "details": "100 μg/ml (0.75 mM); cited from earlier work"}
{"smiles": "O=C(O)CP(=O)(O)O", "note": "[PAA, phosphonoacetic acid]", "values": [{"measurement": "cellular DNA synthesis or population doubling times of uninfected cultures", "result": "little or no effect"}]}
